One protein from ChEMBL document CHEMBL3525906, “A comprehensive assessment of repaglinide metabolic pathways: impact of choice of in vitro system and relative enzyme contribution to in vitro clearance” (Drug Metab Dispos, 2012) can be followed below.

The kcat is the number of substrate molecules converted per active site and unit of time at saturation. The term Km denotes the concentration of substrate that gives half-maximal velocity.

What all share (assay type): ADME
Substrate in data set [1]: CCOc1cc(CC(=O)N[C@@H](CC(C)C)c2ccccc2N2CCCCC2)ccc1C(=O)O
Put plainly: Activity of human recombinant CYP3A4 expressed in insect cells assessed as enzyme-mediated 3'-hydroxy repaglinide formation per picomole of protein at 0.5 to 150 uM by LC-MS/MS method.

Substrate in data set [2]: CCOc1cc(CC(=O)N[C@@H](CC(C)C)c2ccccc2N2CCCCC2)ccc1C(=O)O
As to the kind of experiment: Activity of human recombinant CYP3A4 expressed in insect cells assessed as enzyme-mediated 2-despiperidyl-2-amino repaglinide formation per picomole of protein at 0.5 to 150 uM by LC-MS/MS method.

Substrate in data set [3]: CCOc1cc(CC(=O)N[C@@H](CC(C)C)c2ccccc2N2CCCCC2)ccc1C(=O)O
Put plainly: Activity of human recombinant CYP3A4 expressed in insect cells assessed as enzyme-mediated 2-despiperidyl-2-amino repaglinide formation by LC-MS/MS method.

Substrate in data set [4]: CCOc1cc(CC(=O)N[C@@H](CC(C)C)c2ccccc2N2CCCCC2)ccc1C(=O)O
As to the kind of experiment: Activity of human recombinant CYP3A4 expressed in insect cells assessed as enzyme-mediated 3'-hydroxy repaglinide formation by LC-MS/MS method.

B1: Cytochrome P450 3A4 (Homo sapiens) (protein)
chain: MALIPDLAMETWLLLAVSLVLLYLYGTHSHGLFKKLGIPGPTPLPFLGNILSYHKGFCMFDMECHKKYGKVWGFYDGQQPVLAITDPDMIKTVLVKECYSVFTNRRPFGPVGFMKSAISIAEDEEWKRLRSLLSPTFTSGKLKEMVPIIAQYGDVLVRNLRREAETGKPVTLKDVFGAYSMDVITSTSFGVNIDSLNNPQDPFVENTKKLLRFDFLDPFFLSITVFPFLIPILEVLNICVFPREVTNFLRKSVKRMKESRLEDTQKHRVDFLQLMIDSQNSKETESHKALSDLELVAQSIIFIFAGYETTSSVLSFIMYELATHPDVQQKLQEEIDAVLPNKAPPTYDTVLQMEYLDMVVNETLRLFPIAMRLERVCKKDVEINGMFIPKGVVVMIPSYALHRDPKYWTEPEKFLPERFSKKNKDNIDPYIYTPFGSGPRNCIGMRFALMNMKLALIRVLQNFSFKPCKETQIPLKLSLGGLLQPEKPVVLKVESRDGTVSGA
B1: the kcat worked out at 0.0015 s⁻¹ in data set [1] and 0.0167 s⁻¹ in data set [2]. Moreover, the values for the Km in data set [3] and in data set [4] were 8.7 µM and 47 µM, respectively.
